The values below are quoted from earlier work in PMC11006913.

Positions count from the first letter of the chain named. The list shows a part of the results.

Holding throughout (settings): PBM; conditions not shown; double strand, one strand shown; scale: upbm affinity estimate (log intensity, higher = more binding, comparable within an allelic series)
In data set [1] the target is ARX (Homo sapiens) (UniProt Q96QS3).
Data set [2] has as its target ARX L343Q (Homo sapiens) (UniProt Q96QS3).
Data set [3] concerns the target ARX P353L (Homo sapiens) (UniProt Q96QS3).
Data set [4] concerns the target ARX P353R (Homo sapiens) (UniProt Q96QS3).
For data set [5], the target named is ARX R332H (Homo sapiens) (UniProt Q96QS3).
Data set [6] has as its target ARX T333N (Homo sapiens) (UniProt Q96QS3).
The target in data set [7] is T1, HESX1 E149K (Homo sapiens) (UniProt Q9UBX0).
T1 sequence: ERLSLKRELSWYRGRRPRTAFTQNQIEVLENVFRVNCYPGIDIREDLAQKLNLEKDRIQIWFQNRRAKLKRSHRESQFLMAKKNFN

For data set [8], the target named is T2, HESX1 N125S (Homo sapiens) (UniProt Q9UBX0).
T2 sequence: T1 sequence with N31S, K55E

Data set [9] deals with T3, HESX1 R160C (Homo sapiens) (UniProt Q9UBX0).
T3 sequence: T1 sequence with K55E, R66C

The target of data set [10] is ISX (Homo sapiens) (UniProt Q2M1V0).
Data set [11] deals with ISX R83Q (Homo sapiens) (UniProt Q2M1V0).
Data set [12] has as its target PROP1 R112Q (Homo sapiens) (UniProt O75360).
The target of data set [13] is PROP1 R99Q (Homo sapiens) (UniProt O75360).

In the case of CCCAATTA [8-mer CCCAATTA], the binding signal is 12.9 in [1]; 11 in [2]; 12.8 in data set [3]; 10.8 in [4]; 11.1 in data set [5]; 12.2 in data set [6]. Besides, the binding signal in data set [7] is 12; in data set [8] it was 12.8; in data set [9] it was 10.5; in [10], 15.3; in data set [11], 14.5; in data set [12], 13. For the same sequence, the binding signal in data set [13] was 12.6.
In the case of AGTAATTG [8-mer AGTAATTG], the binding signal is 12.6 in data set [1]; 11 in [2]; 12.3 in data set [3]; 10.9 in [4]; 11.1 in data set [5]; 11.8 in [6]. The binding signal in data set [7] was 11.5; in [8], 11.7; in data set [9] it was 10.5; in data set [10] it was 14.8; in data set [11], 13.2; in [12] it was 12.7. Further, the binding signal in data set [13] was 12.3.
As for CAATTAGA [8-mer CAATTAGA], the binding signal is 12.9 in data set [1]; 10.9 in data set [2]; 12.5 in [3]; 10.7 in [4]; 11 in [5]; 11.9 in [6]. In addition, the binding signal in data set [7] was 11.6; in data set [8] it was 12; in data set [9] it was 10.3; in data set [10] it was 15; in data set [11], 14; in [12], 12.7. Besides, in data set [13], the binding signal is 12.3.
Turning to AATTAAGC [8-mer AATTAAGC], the binding signal was 12.7 in data set [1]; 10.8 in [2]; 12.3 in data set [3]; 10.7 in [4]; 10.9 in data set [5]; 11.9 in [6]. The binding signal was 11.3 in data set [7]; 11 in [8]; 10.2 in [9]; 14.8 in data set [10]; 13.6 in data set [11]; 12.7 in data set [12]. Moreover, the binding signal in data set [13] was 12.2.
On to AATTAATG [8-mer AATTAATG], for which the binding signal in data set [1] is 12.9; in [2], 10.9; in data set [3], 12.4; in data set [4], 10.8; in data set [5], 11.2; in data set [6], 12.1. Also, the binding signal in data set [7] is 11.5; in [8], 11.6; in data set [9] it was 10.4; in data set [10] it was 14.9; in [11], 13.9; in data set [12] it was 12.8. Further, in [13], the binding signal is 12.2.
Turning to CAATTACC [8-mer CAATTACC], the binding signal in data set [1] is 12.8; in [2] it was 10.8; in data set [3], 12.4; in [4], 10.6; in data set [5] it was 10.9; in [6] it was 11.9. The binding signal in data set [7] is 11.8; in [8], 11.9; in data set [9], 10.3; in [10] it was 15.1; in data set [11], 13.7; in data set [12] it was 12.8. The binding signal in data set [13] was 12.4.
Take GTAATTAA [8-mer GTAATTAA]: the binding signal is 13.2 in [1]; 11 in [2]; 12.7 in data set [3]; 10.8 in data set [4]; 11.1 in [5]; 12.3 in data set [6]. For the same sequence, the binding signal was 11.8 in data set [7]; 13.2 in data set [8]; 10.4 in [9]; 15.4 in data set [10]; 14.8 in [11]; 12.9 in [12]. Besides, in data set [13], the binding signal is 12.3.
Take AATTAGCA [8-mer AATTAGCA]: the binding signal in data set [1] was 12.8; in [2], 10.8; in data set [3], 12.5; in data set [4], 10.7; in data set [5] it was 10.9; in data set [6] it was 11.9. Further, the binding signal in [7] is 11.3; in data set [8] it was 11.3; in [9], 10.3; in data set [10] it was 14.6; in [11] it was 13.5; in [12], 12.6. In data set [13], the binding signal was 12.1.
As to CTAATTAG [8-mer CTAATTAG], the binding signal in data set [1] is 13.5; in [2], 11.2; in [3] it was 13.4; in data set [4], 10.9; in data set [5], 11.3; in data set [6], 12.7. For the same sequence, the binding signal in [7] is 12.4; in [8], 14; in data set [9], 10.4; in data set [10] it was 15.6; in data set [11], 15.7; in data set [12] it was 13.1. For the same sequence, in data set [13], the binding signal is 12.6.
For ATAATTAG [8-mer ATAATTAG], the binding signal was 13.3 in data set [1]; 11 in data set [2]; 12.8 in [3]; 10.8 in data set [4]; 11.1 in data set [5]; 12.4 in [6]. Besides, the binding signal in data set [7] was 11.8; in data set [8], 13.2; in data set [9] it was 10.4; in data set [10], 15.6; in data set [11], 14.8; in [12], 12.9. For the same sequence, the binding signal in data set [13] was 12.4.
As for CAAATTAG [8-mer CAAATTAG], the binding signal is 12.8 in data set [1]; 10.7 in data set [2]; 12.3 in [3]; 10.6 in data set [4]; 10.8 in data set [5]; 11.8 in data set [6]. In addition, the binding signal in data set [7] was 11.2; in data set [8], 11.1; in [9], 10.2; in [10], 14.6; in [11] it was 13; in data set [12] it was 12.6. In addition, in data set [13], the binding signal is 12.
For the sequence CTAATTGC [8-mer CTAATTGC], the binding signal in data set [1] was 12.9; in [2] it was 10.9; in [3] it was 12.5; in [4], 10.7; in data set [5] it was 10.9; in data set [6] it was 12. The binding signal is 11.7 in [7]; 12.1 in [8]; 10.4 in data set [9]; 15.2 in data set [10]; 14.1 in data set [11]; 12.7 in data set [12]. Besides, in data set [13], the binding signal is 12.3.
For GCAATTAA [8-mer GCAATTAA], the binding signal in [1] is 12.7; in [2], 10.8; in [3], 12.3; in data set [4], 10.7; in data set [5] it was 10.9; in [6] it was 12. Also, the binding signal in data set [7] is 11.6; in [8] it was 12.1; in data set [9], 10.2; in data set [10], 15.2; in data set [11], 14.6; in data set [12], 12.8. In addition, in data set [13], the binding signal was 12.2.
With AATTAAGT [8-mer AATTAAGT], the binding signal in data set [1] was 12.7; in [2], 10.8; in data set [3] it was 12.1; in data set [4] it was 10.7; in data set [5], 10.9; in data set [6], 11.8. Besides, the binding signal in data set [7] is 11.3; in data set [8], 11.3; in data set [9], 10.2; in [10], 14.7; in [11] it was 13.5; in data set [12] it was 12.6. For the same sequence, the binding signal in [13] was 12.1.
Turning to AATTAGCG [8-mer AATTAGCG], the binding signal in [1] is 12.9; in data set [2], 10.9; in data set [3] it was 12.5; in data set [4] it was 10.7; in data set [5], 10.9; in [6] it was 12.1. The binding signal in [7] is 11.4; in data set [8], 11.4; in data set [9], 10.3; in [10] it was 14.9; in data set [11], 13.7; in data set [12], 12.7. In addition, the binding signal in data set [13] was 12.3.
Turning to TAATTAGA [8-mer TAATTAGA], the binding signal in [1] was 13.3; in data set [2] it was 11; in data set [3], 13; in [4], 10.8; in [5], 11.1; in [6], 12.4. Besides, the binding signal is 12 in data set [7]; 13.2 in data set [8]; 10.4 in data set [9]; 15.7 in [10]; 15.2 in data set [11]; 13 in data set [12]. For the same sequence, in data set [13], the binding signal is 12.4.
Take CCTAATTA [8-mer CCTAATTA]: the binding signal in [1] is 13.3; in data set [2], 10.9; in data set [3] it was 13; in data set [4], 10.8; in data set [5] it was 11.1; in [6], 12.4. Also, the binding signal is 11.9 in [7]; 13 in [8]; 10.4 in data set [9]; 15.5 in [10]; 14.8 in data set [11]; 12.9 in data set [12]. Besides, the binding signal in [13] is 12.4.
CTAATTAC [8-mer CTAATTAC]: the binding signal in [1] is 13.3; in data set [2], 10.9; in data set [3], 12.9; in [4] it was 10.8; in [5], 11; in [6], 12.3. For the same sequence, the binding signal in data set [7] was 11.8; in data set [8], 13; in data set [9], 10.4; in data set [10], 15.7; in [11], 14.8; in data set [12], 12.9. The binding signal in data set [13] was 12.5.
Consider AATTAACA [8-mer AATTAACA], for which the binding signal was 12.8 in data set [1]; 11 in data set [2]; 12.3 in [3]; 10.8 in [4]; 11 in data set [5]; 12 in data set [6]. The binding signal is 11.5 in data set [7]; 11.6 in data set [8]; 10.4 in data set [9]; 15.1 in data set [10]; 13.9 in [11]; 12.7 in [12]. Also, the binding signal in data set [13] is 12.2.
Regarding CAATTAGG [8-mer CAATTAGG], the binding signal in data set [1] is 12.9; in [2] it was 10.9; in data set [3] it was 12.6; in data set [4], 10.7; in [5] it was 10.8; in [6], 12. The binding signal in data set [7] was 11.6; in data set [8], 12.1; in [9], 10.3; in data set [10] it was 15; in [11], 14.2; in data set [12] it was 12.7. The binding signal in data set [13] is 12.4.
